Measured values: patent US20230256114A1, “NOVEL MAYTANSINOIDS AS ADC PAYLOADS AND THEIR USE FOR THE TREATMENT OF CANCER” (priority 2020, published 2023)

Columns and labels:
[1] = test system: MDA-MB-468, SK-BR-3, Colo205, and A549 cells; assay: In vitro cytotoxicity assay of ADCs and free payloads (FIG. 20); format: cell-based
Method: Anti-Trop-2 ADCs were conjugated with different DM1 derivatives with similar DARs, and were tested ahead to ahead with anti-Trop-2-SMCC-DM1 and anti-Trop-2-vc-MMAE against BxPC-3 pancreatic cancer cells representing high Trop-2 expression, MDA-MB-468 breast cancer cells, N87 gastric cancer cells, and SK-BR-3 […] cancer cells representing moderate Trop-2 expression, Colo205 colon cancer cells representing low Trop-2 expression, and A549 lung cancer cells and MDA-MB-231 breast cancer cells with undetectable level of Trop-2. In vitro cytotoxicity assay was performed. Briefly, all cell lines were cultured in a suitable culture medium at 37° C. in a humidified incubator atmosphere of 5% CO2. Cells were plated in 96-well flat bottom plates. Cell seeding number ranged from 500 cells//100 ul/well to 6,000 cells/100 μl/well. Cells were allowed to adhere overnight at 37° C. in a humidified atmosphere of 5% CO2. ADCs were prepared from stock solution and diluted into appropriated working concentration 24 hours after cell seeding. […] Cell Counting Kit-8 solution (Dojindo China Co., Ltd, lot #PL701) was added to the wells for 1-4 hours at 37° C. and the absorbance at 450 nm was measured using a Microplate Reader (SpectraMax M5, Molecular Devices) and SoftMax Pro5.4.1 software. Dose-response curves were generated and IC50 was calculated using GraphPad Prism 7 three-parameter curve fitting. […]

[2] = test system: MDA-MB-231 breast cancer cells; assay: In vitro cytotoxicity assay (Cell Counting Kit-8, 72 hours); format: cell-based, human; conditions: MDA-MB-231, TROP2 expression −, ADC DAR 4
Method: (§1) Anti-Trop-2 ADCs were conjugated with different DM1 derivatives with similar DARs, and were tested ahead to ahead with anti-Trop-2-SMCC-DM1 and anti-Trop-2-vc-MMAE against BxPC-3 pancreatic cancer cells representing high Trop-2 expression, MDA-MB-468 breast cancer cells, N87 gastric cancer cells, and SK-BR-3 […] cancer cells representing moderate Trop-2 expression, Colo205 colon cancer cells representing low Trop-2 expression, and A549 lung cancer cells and MDA-MB-231 breast cancer cells with undetectable level of Trop-2. In vitro cytotoxicity assay was performed. Briefly, all cell lines were cultured in a suitable culture medium at 37° C. in a humidified incubator atmosphere of 5% CO2. Cells were plated in 96-well flat bottom plates. Cell seeding number ranged from 500 cells//100 ul/well to 6,000 cells/100 μl/well. Cells were allowed to adhere overnight at 37° C. in a humidified atmosphere of 5% CO2. ADCs were prepared from stock solution and diluted into appropriated working concentration 24 hours after cell seeding. A serial ten-fold dilution for seven points was performed with culture medium. The final concentrations were ranging from 10,000 nM to 0.001 nM. The cells were incubated with ADCs for 72 hours. Cell Counting Kit-8 solution (Dojindo China Co., Ltd, lot #PL701) was added to the wells for 1-4 hours at 37° C. and the absorbance at 450 nm was measured using a Microplate Reader (SpectraMax M5, Molecular Devices) and SoftMax Pro5.4.1 software. Dose-response curves were generated and IC50 was calculated using GraphPad Prism 7 three-parameter curve fitting.

A549 lung cancer cells = assay: as above; format: cell-based, human; conditions: A549, TROP2 expression −
Method: as §1

[3] = test system: Trop-2 high or medium cells; assay: In vitro cytotoxicity assay, summary over cell lines with high/moderate Trop-2 expression; format: cell-based; conditions: ADC-BI-P203 DAR7, ADC-vc-MMAE DAR4; BxPC-3, MDA-MB-468, NCI-N87
Method: Anti-Trop-2 ADCs were conjugated with different DM1 derivatives with similar DARs, and were tested ahead to ahead with anti-Trop-2-SMCC-DM1 and anti-Trop-2-vc-MMAE against BxPC-3 pancreatic cancer cells representing high Trop-2 expression, MDA-MB-468 breast cancer cells, N87 gastric cancer cells, and SK-BR-3 […] cancer cells representing moderate Trop-2 expression, Colo205 colon cancer cells representing low Trop-2 expression, and A549 lung cancer cells and MDA-MB-231 breast cancer cells with undetectable level of Trop-2. In vitro cytotoxicity assay was performed. Briefly, all cell lines were cultured in a suitable culture medium at 37° C. in a humidified incubator atmosphere of 5% CO2. Cells were plated in 96-well flat bottom plates. Cell seeding number ranged from 500 cells//100 ul/well to 6,000 cells/100 μl/well. Cells were allowed to adhere overnight at 37° C. in a humidified atmosphere of 5% CO2. ADCs were prepared from stock solution and diluted into appropriated working concentration 24 hours after cell seeding. […] Cell Counting Kit-8 solution (Dojindo China Co., Ltd, lot #PL701) was added to the wells for 1-4 hours at 37° C. and the absorbance at 450 nm was measured using a Microplate Reader (SpectraMax M5, Molecular Devices) and SoftMax Pro5.4.1 software. Dose-response curves were generated and IC50 was calculated using GraphPad Prism 7 three-parameter curve fitting.

B1: Anti-Trop-2-BI-P209: humanized anti-Trop-2 antibody conjugated to BI-P209 payload (conjugate)
heavy: SALMSRLTISKDTSKNQFSLKLSSVTAADTAVYYCARDENWDGAWFAYWGQGTLVTVSSASTKGPSVFPLAPSSKSTSGGTAALGCLVKDYFPEPVTVSWNSGALTSGVHTFPAVLQSSGLYSLSSVVTVPSSSLGTQAYICNVNHKPSNTKVDKKVG[human IgG1 Fc with K334R T359A (EU numbers) not shown]
light: DIVMTQSPDSLAVSLGERATINCKSSQSLLNSGTRKNYLAWYQQKPGQPPKLLISWASSRESGVPDRFSGSGSGTDFTLTISSLQAEDVAVYYCKQSYNLFTFGGGTKVEIKRTVAAPSVFIFPPSDEQLKSGTASVVCLLNNFYPREAKVQWKVDNALQSGNSQESVTEQDSKDSTYSLSSTLTLSKADYEKHKVYACEVTHQGLSSPVTKSFNRGEC
[1]
  in vitro cytotoxic activity of the ADC compared with ADC-BI-P203: comparable activity as ADC-BI-P203

B2: Anti-Trop-2-Vc-MMAE: comparator ADC: anti-Trop-2 antibody with vc-MMAE payload, DAR 4 (conjugate)
heavy: SALMSRLTISKDTSKNQFSLKLSSVTAADTAVYYCARDENWDGAWFAYWGQGTLVTVSSASTKGPSVFPLAPSSKSTSGGTAALGCLVKDYFPEPVTVSWNSGALTSGVHTFPAVLQSSGLYSLSSVVTVPSSSLGTQAYICNVNHKPSNTKVDKKVG[human IgG1 Fc with K334R T359A (EU numbers) not shown]
light: DIVMTQSPDSLAVSLGERATINCKSSQSLLNSGTRKNYLAWYQQKPGQPPKLLISWASSRESGVPDRFSGSGSGTDFTLTISSLQAEDVAVYYCKQSYNLFTFGGGTKVEIKRTVAAPSVFIFPPSDEQLKSGTASVVCLLNNFYPREAKVQWKVDNALQSGNSQESVTEQDSKDSTYSLSSTLTLSKADYEKHKVYACEVTHQGLSSPVTKSFNRGEC
[2]
  IC50: > 100 nM
[2]; listed as ADC-vc-MMAE
  IC50: ~100 nM
A549 lung cancer cells; ADC DAR 4
  IC50: > 100 nM
A549 lung cancer cells; ADC DAR 4, listed as ADC-vc-MMAE
  IC50: ~100 nM
[3]
  cell killing potency compared with ADC-SMCC-DM1 (DAR4): more potent than ADC-SMCC-DM1(DAR4)

B3: Anti-Trop-2-SMCC-DM1: comparator ADC: anti-Trop-2 antibody with SMCC-DM1 payload, lysine conjugation, DAR 4 (conjugate)
heavy: SALMSRLTISKDTSKNQFSLKLSSVTAADTAVYYCARDENWDGAWFAYWGQGTLVTVSSASTKGPSVFPLAPSSKSTSGGTAALGCLVKDYFPEPVTVSWNSGALTSGVHTFPAVLQSSGLYSLSSVVTVPSSSLGTQAYICNVNHKPSNTKVDKKVG[human IgG1 Fc with K334R T359A (EU numbers) not shown]
light: DIVMTQSPDSLAVSLGERATINCKSSQSLLNSGTRKNYLAWYQQKPGQPPKLLISWASSRESGVPDRFSGSGSGTDFTLTISSLQAEDVAVYYCKQSYNLFTFGGGTKVEIKRTVAAPSVFIFPPSDEQLKSGTASVVCLLNNFYPREAKVQWKVDNALQSGNSQESVTEQDSKDSTYSLSSTLTLSKADYEKHKVYACEVTHQGLSSPVTKSFNRGEC
[2]
  IC50: > 100 nM
[2]; listed as ADC-SMCC-DM1
  IC50: ~100 nM
A549 lung cancer cells; ADC DAR 4
  IC50: > 100 nM
A549 lung cancer cells; ADC DAR 4, listed as ADC-SMCC-DM1
  IC50: ~100 nM

B4: Anti-Trop-2-BI-P205: humanized anti-Trop-2 antibody conjugated to BI-P205 payload (conjugate)
heavy: SALMSRLTISKDTSKNQFSLKLSSVTAADTAVYYCARDENWDGAWFAYWGQGTLVTVSSASTKGPSVFPLAPSSKSTSGGTAALGCLVKDYFPEPVTVSWNSGALTSGVHTFPAVLQSSGLYSLSSVVTVPSSSLGTQAYICNVNHKPSNTKVDKKVG[human IgG1 Fc with K334R T359A (EU numbers) not shown]
light: DIVMTQSPDSLAVSLGERATINCKSSQSLLNSGTRKNYLAWYQQKPGQPPKLLISWASSRESGVPDRFSGSGSGTDFTLTISSLQAEDVAVYYCKQSYNLFTFGGGTKVEIKRTVAAPSVFIFPPSDEQLKSGTASVVCLLNNFYPREAKVQWKVDNALQSGNSQESVTEQDSKDSTYSLSSTLTLSKADYEKHKVYACEVTHQGLSSPVTKSFNRGEC
A549 lung cancer cells; ADC DAR 3.6
  IC50: > 100 nM
